# Test results from the supplement of paper PMC7826260.
# This is one part of the list. The data describe in vitro nicking of single-stranded DNA by Rep domains at 3 µM enzyme and 37 °C for 1 h; the strands have 90 letters, of which the middle is given. Values are log2 of uncut reads against the no-enzyme pool; strong cutting gives strongly negative numbers. There is no active / inactive call. Counts are relative to all reads; where an enzyme cuts many sequences, the uncut ones exceed 0.
# Assays:
# Assay in all cases: uncleaved DNA left, log2 of reads against the no-enzyme library (log2 ratio); higher = less cleavage (more negative = more Rep cleavage of the k-mer); sequences stand for … in CTCGTCCG…ACCGGAGA
# [1] = test system: T1, Rep nickase domain of Muscovy duck circovirus
# T1 sequence (protein, residues 1-111, tag omitted): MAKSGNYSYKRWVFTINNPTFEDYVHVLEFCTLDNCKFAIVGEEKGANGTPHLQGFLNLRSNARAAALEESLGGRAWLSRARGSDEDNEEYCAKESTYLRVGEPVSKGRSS
# Method: (§1)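 A pool of 90-nt single-stranded DNAs with seven random bases just before the constant AC of the nick site (name = the seven bases) was cut by 3 µM recombinant His6-SUMO-tagged Rep nickase domain (300 nM DNA, 50 mM HEPES pH 8.0, 50 mM NaCl, 1 mM MnCl2, 1 h, 37 °C, three replicates). Uncut DNA was amplified and sequenced.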
# [2] = test system: T2, Rep nickase domain of banana bunchy top virus
# T2 sequence (protein, residues 1-94, tag omitted): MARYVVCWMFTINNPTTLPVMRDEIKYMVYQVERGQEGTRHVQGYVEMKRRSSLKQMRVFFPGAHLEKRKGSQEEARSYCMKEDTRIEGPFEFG
# Method: as §1
# [3] = test system: T3, Rep nickase domain of cabbage leaf curl virus
# T3 sequence (protein, residues 1-116, tag omitted): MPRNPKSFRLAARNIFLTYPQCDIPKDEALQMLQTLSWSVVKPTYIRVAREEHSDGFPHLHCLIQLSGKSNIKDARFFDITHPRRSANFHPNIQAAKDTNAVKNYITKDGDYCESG
# Method: as §1
# [4] = test system: T4, Rep nickase domain of chickpea chlorotic dwarf virus
# T4 sequence (protein, residues 1-124, tag omitted): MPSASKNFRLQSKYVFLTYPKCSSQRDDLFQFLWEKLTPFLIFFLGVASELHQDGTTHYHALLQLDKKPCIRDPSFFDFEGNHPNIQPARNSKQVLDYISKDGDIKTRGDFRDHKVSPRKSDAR
# Method: as §1
# [5] = test system: T5, Rep nickase domain of faba bean necrotic yellows virus
# T5 sequence (protein, residues 1-98, tag omitted): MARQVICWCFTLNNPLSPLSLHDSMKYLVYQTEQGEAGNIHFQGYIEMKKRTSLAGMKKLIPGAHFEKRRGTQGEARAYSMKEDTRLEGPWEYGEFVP
# Method: as §1
# [6] = test system: T6, Rep nickase domain of maize striate mosaic virus
# T6 sequence (protein, residues 1-117, tag omitted): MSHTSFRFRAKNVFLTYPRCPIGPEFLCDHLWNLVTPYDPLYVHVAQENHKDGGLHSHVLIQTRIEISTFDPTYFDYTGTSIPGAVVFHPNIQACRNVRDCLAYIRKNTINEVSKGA
# Method: as §1
# [7] = test system: T7, Rep nickase domain of porcine circovirus 2
# T7 sequence (protein, residues 2-116, tag omitted): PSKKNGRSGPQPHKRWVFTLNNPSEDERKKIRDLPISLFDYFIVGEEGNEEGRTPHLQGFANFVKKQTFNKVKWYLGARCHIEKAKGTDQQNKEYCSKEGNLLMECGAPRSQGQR
# Method: as §1
# [8] = test system: T8, Rep nickase domain of tomato golden mosaic virus
# T8 sequence (protein, residues 1-124, tag omitted): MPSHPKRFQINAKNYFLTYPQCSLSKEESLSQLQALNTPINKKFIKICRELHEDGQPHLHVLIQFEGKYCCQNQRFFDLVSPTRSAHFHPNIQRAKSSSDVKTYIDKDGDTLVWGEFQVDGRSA
# Method: as §1
# [9] = test system: T9, Rep nickase domain of tomato yellow leaf curl virus
# T9 sequence (protein, residues 1-136, tag omitted): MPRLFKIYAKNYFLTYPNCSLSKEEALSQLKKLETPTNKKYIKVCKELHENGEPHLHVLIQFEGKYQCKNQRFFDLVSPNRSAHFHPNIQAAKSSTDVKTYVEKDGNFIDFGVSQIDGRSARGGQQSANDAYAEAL
# Method: as §1
# [10] = test system: T10, Rep nickase domain of wheat dwarf virus
# T10 sequence (protein, residues 1-137, tag omitted): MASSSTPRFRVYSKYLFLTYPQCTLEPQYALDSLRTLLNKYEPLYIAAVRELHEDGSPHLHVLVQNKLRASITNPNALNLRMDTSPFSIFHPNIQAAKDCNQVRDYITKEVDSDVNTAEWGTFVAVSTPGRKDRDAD
# Method: as §1
Sequence,uncleaved DNA left (log2) [1],uncleaved DNA left (log2) [2],uncleaved DNA left (log2) [3],uncleaved DNA left (log2) [4],uncleaved DNA left (log2) [5],uncleaved DNA left (log2) [6],uncleaved DNA left (log2) [7],uncleaved DNA left (log2) [8],uncleaved DNA left (log2) [9],uncleaved DNA left (log2) [10]
AACCAAG,-0.0908,-0.0237,-0.66,-0.435,0.00346,-1.19,-0.0424,0.00865,0.0224,-0.0344
GTGCATA,0.0762,0.203,0.364,1.02,0.159,1.73,0.0126,0.123,0.169,0.188
AGGAGTT,-0.00288,0.0446,0.162,0.557,-0.0595,1.36,-0.106,-0.00603,-0.0778,-0.0389
TTGAGTA,0.159,0.0141,-0.136,-0.818,0.0469,-0.921,-0.499,0.1,0.0243,-0.00143
TTCGAAC,-0.00243,-0.0243,0.0899,-0.229,0.011,-0.45,-0.0265,-0.0758,0.0135,0.0446
TTGCTTC,0.0674,-0.101,-0.418,-0.764,-0.0815,-1.12,-0.0779,-0.212,-0.0318,-0.158
TCTTCGA,-0.0286,-0.134,-0.382,-0.743,-0.0988,-1.03,-0.0138,-0.154,-0.0615,-0.083
ATGCATG,0.105,0.00538,-0.334,-0.392,0.0683,-0.751,0.234,-0.0337,-0.0127,-0.0879
ATCCTTA,0.071,0.124,0.0751,-1.25,0.00157,-0.341,-0.133,0.0825,0.0459,-0.0539
GCCTCTT,-0.815,-0.0876,0.106,-1.13,-0.023,0.156,-2.32,-0.0187,-0.182,-0.0493
TAAACAA,-0.0982,-0.0248,-0.366,-2.43,-0.0365,-0.53,0.033,-0.0456,-0.00693,-0.146
CATGGAC,-0.0398,-0.0376,0.313,1.12,-0.00491,0.953,0.0894,0.0437,-0.0353,-0.0151
CCCTCTT,-2.44,-0.577,-0.288,-2.24,-0.384,-0.513,-2.95,-0.215,-0.258,-0.449
TACCCTT,-0.0493,-0.185,-1.19,-2.57,0.106,0.195,-1.49,-0.299,-0.00203,-0.17
ATGGCCC,-0.133,0.0794,0.225,0.554,-0.0888,0.403,-0.0159,-0.0404,-0.0109,-0.0902
GCACCTC,0.0071,-0.131,0.0725,0.459,0.00234,0.549,-0.00516,-0.0109,0.041,0.128
TGTAGTC,0.0504,0.0285,0.327,0.419,0.0994,0.337,0.0743,0.0262,0.0887,0.00327
TCTAAAC,0.034,-0.018,0.187,-0.209,0.0365,-0.453,0.124,0.222,0.00963,0.0813
CATTATC,-0.0431,-0.328,0.00867,-0.386,-0.148,-0.809,-0.638,-0.105,0.0345,0.0722
ACCGAAT,-0.00604,-0.0485,0.109,0.000661,0.0252,-0.342,0.126,-0.0332,-0.044,-0.0107
AAACCGA,0.0387,0.0243,-0.282,-0.879,0.185,-0.846,0.083,0.0781,0.104,-0.0375
CTGGCCC,0.255,0.165,0.161,0.182,-0.0499,0.383,0.0439,0.0548,0.125,0.121
ATACATG,0.107,0.0799,-0.438,-0.606,-0.0196,-1.15,0.221,0.094,0.0277,0.0383
CCTACCA,-0.251,-0.0231,-0.504,-2.66,-0.0918,-0.594,-0.78,-0.144,-0.0378,-0.0956
TGCTTCG,0.101,-0.0828,-0.971,-0.214,0.104,-1.02,0.0836,-0.272,-0.111,-0.156
GTGTTAA,0.171,0.195,0.409,0.915,0.00265,1.89,0.155,0.159,0.0969,0.179
TCAAAAG,-0.0489,-0.0376,-0.68,-0.626,0.00556,-1.21,0.229,-0.0235,0.0535,-0.122
GTAGCCC,0.0767,-0.0113,0.214,0.773,-0.0165,1.31,0.0655,-0.063,0.0402,0.0409
CCCGTTT,0.318,0.0872,0.362,-1.15,0.101,0.246,0.000743,0.241,0.0864,0.0886
